Test results: the supplement of paper PMC11417369
± gives the standard deviation of the averaged measurements. The list shows a part of the results.

Tested on: PfAP2-G AP2 domain (GST-tagged)
Assay: gcPBM binding intensity (ln(normalized median fluorescence intensity)); higher = stronger DNA binding
How it was run: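 Plasmodium falciparum DNA-binding domains carrying a GST tag were expressed in E. coli and applied for 1 h, at about 25 μg on average, to an Agilent 4 × 180k array. The array held primer-extended double-stranded 36-bp intergenic genomic probes together with negative controls, and binding took place in 1× PBS with 1% milk, 0.2 mg/ml BSA, 0.5% salmon testes DNA and 0.03% Triton X-100. An Alexa488 anti-GST antibody detected bound protein, and the array was scanned at 488 nm. Binding intensity is taken as the highest Masliner-normalised natural-log median intensity across replicate spots of either probe orientation.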

Sequence	gcPBM binding intensity (ln)
ATATAAATATTAAATACACACATTTTTGATTAGGTT [CACACA_site7461]	9.915 ± 0.078
TAAATCATTTATTAAGTGCAATATTCTTTTTGAGAT	9.73 ± 0.028
TGTTTTCCCTTTAGTGTGCACGTATTTCTATTAACA [GTGCAC_site9847]	10.7 ± 0.46
TAAAAACATTTAAATTGTACGGAAATAAAAATTTTT [XGTACX_site8225]	10.9 ± 0.57
GACCCATTATTTTATTGTACTTTTATTATAACGTGA [XGTACX_site156]	11.4 ± 0.81
AAATGAATAATGATATACAAACAAATCATGTGTTAA [XGTACX_negctrl_site150]	9.51 ± 0.39
ATACATTCAAAATATACACACATATATATATAATAT [CACACA_site950]	9.95
TTTCCCCCATATAATGAACACACACCCTCCTCATAA [CACACA_site8110]	11.2 ± 0.65
TATGTTAAAAAAAAATGTACATATGTTTTTGTTAAA [XGTACX_site4754]	11.2 ± 0.86
AAAATAAAAATAACAACACACATATACTATAATATT [CACACA_site2769]	9.82 ± 0.057
ATGTGTGTATACATCAATTATATATATATTATGTAT [GTGCAC_negctrl_site720]	10.2 ± 0.24
ATAAATATATGAAGTTGTACAAATAATTAACATTAT [XGTACX_site5740]	11.2 ± 0.64
AAATTAAATAAATTTACACACTAAAAATTACATATA [CACACA_site1054]	9.93 ± 0.16
TTTATTATTATATTATTTTAATTTTTCTTTAGTACA [GTGCAC_negctrl_site392]	10.29 ± 0.099
CATTTCATTTCTTAATGTACTTTATTCCACCACATA [XGTACX_site5943]	11.3 ± 0.86
ATTTTTTTTAATTTGTACAAATTTTGTTCACAATTT [CACACA_negctrl_site1301]	10.8 ± 0.4
TACCATGTTCAAATTACACACATATAATCTAATATA [CACACA_site2008]	9.805 ± 0.021
TAATATCTACATATATGTACATATATATATATATAT [XGTACX_site7979]	11.1 ± 0.65
AAAGGGACATATATATCACACACAAAAATTAGTCCC [CACACA_site8897]	10.4 ± 0.41
TTATATATGTATTAATGTACATAGTTGAGAAAGGTA [XGTACX_site1511]	11 ± 0.67
ATGGGACAGATATATACACACATATAAATATAAATA [CACACA_site6684]	10.3 ± 0.35
GGAAGCTAATTACACACATGCATATTTTTTTTTCAA [TGCATGCA_site548]	9.94 ± 0.014

Sequence	gcPBM binding intensity (ln)
ATAATATAGAACAATACATGCAAATGGCTTAAATTT [TGCATGCA_site521]	9.8 ± 0.22
ATATTTTATATAATAGTGCAAATAATATTAAATAAT	9.94 ± 0.099
ATTATAATATTTAATTGTACTTGTATTTATTCCAAA [XGTACX_site6417]	11.3 ± 0.94
TAATAAAAAGTTGAGGTGCATATAGAGTTCTTCTTT [GTGCAC_site9508]	10.01 ± 0.085
TGCCCTTTGGTTATAACACACATGCACCCGTAAATA [CACACA_site3842]	10.6 ± 0.63
ATATATATATAATAATGTACTTATAATAGATGTGTA [XGTACX_site4677]	11.2 ± 0.79
CACATAAAATAAGGTGCATGCAAACGAGAAAATAAA [TGCATGCA_site75]	10.32 ± 0.014
AATAAATATATTAAAAGTACACAAATATTATTTAAT [XGTACX_site2482]	11.4 ± 0.76
AAGATTAAACATTGCACACAAAAACATATTTTCTAT [CACACA_site530]	9.78 ± 0.26
AAAAAAAATATATTACAAAACTTAGGATCCTAATAT [CACACA_negctrl_site470]	9.79 ± 0.18
AATATATAAGCTGTTCTATTCAAGAATTATATCTTA [CACACA_negctrl_site270]	9.57 ± 0.11
CAAAGGAAACCTATCTGTACACATATTGGGGGAAAA [XGTACX_site3502]	11.6 ± 1
AGAAGATTAAACATTGCACACAAAAACATATTTTCT [CACACA_site8072]	9.98 ± 0.014
TATATATTGCCCTTCACACACACACCGATATATATA [CACACA_site5390]	10.3 ± 0.22
CGTAAACGATATAAATGTACGAATATCTATATATTA [XGTACX_site8116]	10.6 ± 0.3
ATAATAAGGTTAAGCACACATATTACATATATAACT [CACACA_site3356]	10.1 ± 0.19
TATTTCATCTTTTAAGAAGGTACCCATATGTCATAT [GTGCAC_negctrl_site403]	11.1 ± 0.72
AAAAATATAACCGTTACACACAAAATAATATGAGAA [CACACA_site3773]	9.935 ± 0.035
TCGTTTCATAATATTGTGCACATATATATTTACAAT	10.7 ± 0.37
GAACGATATATTATATGTACATATATATATATATAT [XGTACX_site394]	11.2 ± 0.69
TAATCGTTTTATAAATGTACAAAATTGTTATGTTAT [XGTACX_site5147]	10.6 ± 0.35
GGGGGAAGGTTGAAGGTGCTTGATGGAGAAAAATAT	10.9 ± 0.6
